Assay results as given in the RNAGym collection of RNA variant scans (doi:10.7554/elife.90254).
The source gives no read counts; variants with many changes may rest on few reads.

B1: LINE1-mini (parent)
chain: GGCAGAGCUCAACACAGCGUGGCAAAGUGGCUGUGGCUAGACUGCC

Variants of: B1
Test: self-cleavage, relative activity (ratio to wild type); higher = more cleavage; in vitro, sequencing; the parent is a self-cleaving ribozyme

Variant	self-cleavage
C3U A16U A39U	0.08
C3U A14C G22C C37U	0.01
C3U A16C G29C G30U G33U	0.05
C3G U9C A16C C45U	0
C3U A26G U28C G36U C42A	0.05
C3G G17A G36A	0.5
C3U A6C A11C C15G A24G U32A	0.01
C3U C8A C23G	0.33
C3U A11U U38A	0.01
C3G G5U G40U	0.05
C3G G19C U20C G22A	0.22
C3G G17C C18U U20C	0.04
C3G C23G C37U A41C	0.04
C3U A11U C37A A41C	0
C3U A6G U34A	0.01
C3G G5A G30C C31G C46A	0.06
C3U A11U G36A	0.01
C3G C23A U32A G35U	0.03
C3G U28G C31G C42A C45A	0.02
C3G U20G A26U G30C A39G C42G	0.14
C3U A4G U20A C31A C42U	0.02

Variant	self-cleavage
C3U A6C G17C G19A U20C	0.15
C3G G27C C42U	0.28
C3U A26U G36A	0.79
C3G C31G G40A	0.19
C3G G21U C23A C31G	0.03
C3U C8A C13G	0.63
C3G U20G U28A C31U	0.16
C3U C8A C31U	2.62
C3U A26U C37G	0.06
C3G G29A U38A A39U	0.09
C3G G5C G22C C31A C37G	0.02
C3U A14C U38A C46G	0.03
C3U A12U G21C G36C G40A	0.09
C3U C8A A26G U32C	0.17
C3G U9A G22U G40C	0.21
C3G G22U C42G	0.1
C3U A11U C37G	0.04
C3G C18G G33C	0.05
C3G G21C G35C	0.13
C3U A4U A6C C15G	0.04
C3G U20G G21U U38A A41G	0.12

Variant	self-cleavage
C3U A16C G19C U28A	0.07
C3U A4G A16G C37A	0.22
C3G C31G C45U	0.11
C3U A39U G40U	0.05
C3G C23A C45U	2.98
C3U A14U G36U	0.23
C3U A4U A12C U28G U34C C42U	0.03
C3U A12U G36A G40C	0.12
C3G U9G U28A C42G	0.05
C3U A12G A39C C45G	0.02
C3G G36A U38G	0.01
C3G C31A G40U	0.01
C3U A14C U20C G33U	0.12
C3G G17U G22C	0.45
C3G G17U G22U	0.17
C3G G17U G22A	0.08
C3G U9G C23U A25U	0.29
C3G U9C G19A C23U	0.03
C3G G17C G21A A39C	0.02
C3U A6G U9A A25U G30A C31A	0.02
C3U A4C C13A U34A C37A A39G	0.22

Variant	self-cleavage
C3G G22U A24C C31A G40A	0.24
C3U A4U G7U C15A U34A	0.08
C3G U28A G36U	0.15
C3G G7A G22U C45A	0.2
C3U A14G G21A G33A	0.07
C3U C8A A16G C42A	0.06
C3U A6G C8U G19C U28C C46U	0.05
C3G G17U C23A G35A G44U	0.01
C3G G7A U9A A11U C23G C45U	0.03
C3U A6G A12G G33U	0.05
C3U A14U C18A G21U	0.08
C3G U20A A25C G44C	0.07
C3G G7U G22U G44A	0.02
C3G G33C G44A	0.07
C3U A24U G36U	0.04
C3G G7C C15A U28C G29A	0.03
C3G U28G C31G	0.08
C3G U9A A14C G33A C46G	0.17
C3G G22A C23G	0.2
C3U A14C G44C	0.06
